The source of these data is the supplement of paper PMC10126150.

Sequences with one replicate were seen in a single cluster, so their values are uncertain.

The data set concerns ATP. In words: switch fluorescence ratio, 500 uM ATP over buffer (Cy3 cluster intensity, sum of 5 cycles each) (fold (ratio)); higher = stronger signal-on switching upon ATP binding; sequences stand for … in TCGTCGGCAGCGTCAGATGTGTATAAGAGACAGTTTTTTTTTTTTTTTTTTTTTTTTT…TC. The conditions noted are these: aptamer strand: ATP DNA aptamer (quencher-CACCTGGGGGAGTATTGCGGAGGAAGG + anchor), 100 nM annealed; ATP concentration: 500 uM; one replicate. Summed up: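 The fluorescence ratio divides summed target-cycle Cy3 intensity by summed buffer-cycle Cy3 intensity for each cluster and is averaged per switch-domain sequence. Cy3-labelled switching-strand clusters on a modified Illumina MiSeq flow-cell were annealed to 100 nM quencher-labelled ATP aptamer, then imaged in selection buffer and again after 15 min with 500 uM ATP at 22 °C. Five such cycles were run, with NaOH stripping and re-annealing between them, and clusters outside 100-1000 RFU were excluded.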
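Also: ATP exposure 15 min at 22 °C before imaging.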

In the case of AGGAGGCGGT, the switch fluorescence ratio was 0.972.

Take AGACGAAACA: the switch fluorescence ratio is 1.17. To ACGGGTCGTA belongs 0.988.

On to CAGGGCATCA, for which the switch fluorescence ratio came to 0.952. For TCTTTAGTCT the value was 1.01.

As to TGAAAGAATG, the switch fluorescence ratio worked out at 0.976.

With GGATTGCCAG, the switch fluorescence ratio came out at 0.974.

In the case of GGTTTCTGGT, the switch fluorescence ratio worked out at 0.982. For GGAGGCGGGT the value was 0.985; for CGCGGTATT, 2.06; for CCGACAAAAC, 3.95. For ATATAATAAA the value was 1.02. To GTGTTGTTTA belongs 1.06; to GGATTCTTGT, 1. Regarding CAAGGGGCTC, the switch fluorescence ratio is 1.01.

CGCGCAGTGG: the switch fluorescence ratio is 1.03.

As to TCAGACAGCT, the switch fluorescence ratio is 0.963. To AGTGATTCTG belongs 0.971; to AGGAGTTCTA, 0.976; to TGACCTGTTT, 1. For ACAATACTAA the value was 1.18. Take GGGCACGCCG: the switch fluorescence ratio was found to be 0.983.

In the case of AGGCGCGGGC, the switch fluorescence ratio amounted to 0.977.

In the case of AATTTGTCAA, the switch fluorescence ratio came to 0.995. ATTGGACGT: the switch fluorescence ratio turned out to be 1.01. Consider GCGACTCAGG, for which the switch fluorescence ratio was 1.17.

On to AACCAGCCAT, for which the switch fluorescence ratio was found to be 1.03. To TGGTAGTAAA belongs 1; to GAAGCATATG, 1.09.

For ACTTGACTTT, the switch fluorescence ratio was found to be 1.08. Turning to ACTATTTATC, the switch fluorescence ratio amounted to 1.02. Consider CTACGAAAAT, for which the switch fluorescence ratio amounted to 1.04. To CTCGCTATAT belongs 3.22. To TGCTCCCGTG belongs 1.27; to TTGTTCTGAA, 0.984; to AACGCATCGA, 1.17. In the case of TTCAAGTCGG, the switch fluorescence ratio came out at 1.04.

As for CAAGGTAGTC, the switch fluorescence ratio stood at 0.993. On to AGTTTGTCGG, for which the switch fluorescence ratio is 0.995. AGGGTCCCGG: the switch fluorescence ratio stood at 0.987. To CCGATTGTAT belongs 1.26. For TGTGTGGCTG, the switch fluorescence ratio came out at 0.948. To AAGATCTTGG belongs 0.97.

Take TACATCAACA: the switch fluorescence ratio came to 1.14.

Consider GGTATCCCTA, for which the switch fluorescence ratio came to 1.03. With AGTTGAGAGC, the switch fluorescence ratio was 1.03. To GGTAGCATAT belongs 1.15. On to TCTAGAGATT, for which the switch fluorescence ratio came out at 1.06. To CCACCCTGGA belongs 1.06; to GAAAAGTTAT, 1. On to CCGAATGTTG, for which the switch fluorescence ratio is 1.03. To CAATGTGACC belongs 1.09; to CCTTTAAAGT, 1.01; to ATCTTTCATC, 1.05. For CTCCAGTGAA the value was 1.27; for ACTAGTCCTT, 0.982; for GTTCCTCAAA, 1.25.

Consider CCGGCACCGT, for which the switch fluorescence ratio turned out to be 1.05. For CCGTAGTGTT the value was 2.05; for GTCTGTGTTT, 0.978; for GCGGAGAAGG, 1.05.

In the case of AAAATGGAAT, the switch fluorescence ratio came out at 0.932.

Turning to AATGCAAAAG, the switch fluorescence ratio stood at 0.989. TTCAGGTGTA: the switch fluorescence ratio worked out at 1.45. To AGGAAAAATT belongs 1.02; to TGACAACGTC, 0.979. On to ATATGGATAG, for which the switch fluorescence ratio came out at 1. To GCATTGGACA belongs 1; to CGTGATGGCA, 1.04; to TCCCTTT, 0.954. For ACCTAATTT the value was 1.06; for TTTGTTCAGT, 0.952. For GTTTTTATCA the value was 0.991.

GATTCCGGGT: the switch fluorescence ratio was 1.04. For CCGGGAAAGT the value was 0.974; for CCTCCCTGGC, 1.62; for TGAAAAGAGT, 0.971. For TTTACTCATG the value was 0.965; for GCGTAAACTT, 1.03. To GAGCTCGGGT belongs 1.01; to AAATAAGCGT, 1.03; to GCGGCTATAG, 1.02. Consider GCGGAATCTG, for which the switch fluorescence ratio was found to be 1.03. For CGTAGGGAAC the value was 1.15; for GGTGACGGTG, 0.967; for TACCCGTCGC, 1.1. For TTCTCGGGAG the value was 1.01; for TTCTCTGCCA, 1.04; for CATTTACGA, 1.33. Consider AATTGATCAT, for which the switch fluorescence ratio was 0.99. With CAAAACGGGT, the switch fluorescence ratio turned out to be 1.01.

Regarding AGTAGAAGCC, the switch fluorescence ratio worked out at 0.998. For AATAATCCGA the value was 1.07. To GCAGGAATGA belongs 1.05.

For the sequence ATAAAATAGC, the switch fluorescence ratio came out at 0.971.

Take CCCCGGTAAG: the switch fluorescence ratio is 1.55. To CCGGATGCGC belongs 1.75; to GAGCCCGGGG, 1.04. For TAGGGAGCCA the value was 1.04; for CACGTACGCT, 1.59. For ATTTCTCGTG the value was 0.975; for CGAAGACAAG, 1.01; for TCCTTGGTGT, 1.21. Consider CGTTCAAACT, for which the switch fluorescence ratio amounted to 1.06. To TACGAAATA belongs 5.78; to TCAAGTACCT, 1.41; to AGGAGCGAAA, 1.

For GCGATATGGG, the switch fluorescence ratio came out at 1.06. To GCAGATTGTT belongs 1.03; to GTGCAAAGCA, 0.994; to TAGTCTGGAT, 0.987. For GATGCATGAA the value was 1; for TTGCTAAT, 0.992.

Take AATTAGGAAG: the switch fluorescence ratio was 0.978. For CCTCGGCCAG the value was 2.56; for TGTTGGTGAA, 0.983. For TAAGTGGCAA the value was 1.04; for AGAAAAGGAT, 1.02; for TTGGGCGATG, 1.

For CCAACAGCCT, the switch fluorescence ratio was 1.24.
